Experimental data published in PubChem BioAssay AID662 (National Center for Advancing Translational Sciences (NCATS), 2007).
The campaign covered roughly 71,000 compounds. About 1,800 (2.5%) were called active. Inconclusive means that the source gave no clear call. Such entries were picked first, then a sample of the others. Calls follow the shape of the dose curve; as a rule, active = well fitted activation curve with a large enough effect in the signal ratio, with a control signal flat (not every such curve was filed as active); inconclusive = small, poorly fitted or top-dose-only effect, or effect the other way, or a change in a side signal; inactive = flat fitted curve, though single readings scatter; the % refers to the signal ratio. Potencies beside an inconclusive call are fits to weak or partial responses and may not hold up.

Experiment: Cell signaling CRE-BLA (Fsk stim); as to activity change, negative = inhibition: % of control where 0% means no effect
Conditions: CHO CRE-bla reporter (cAMP response element driving beta-lactamase), forskolin EC10, beta-lactamase ratio; activity change, negative = inhibition: at 38.2 µM (top of the series) unless noted
Summary of the method: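 Forskolin analogue NKH 477 at EC10 stimulated CRE-driven beta-lactamase in CHO cells alongside compound dilution series. Beta-lactamase was measured with CCF4, excitation 405 nm, emission ratio 460/530 nm.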
Potency is read from the fitted curve at half-maximal effect; tags tell the direction and shape of the fitted curve.

| Structure (SMILES) | activity change, negative = inhibition | Potency |
| --- | --- | --- |
| COc1ccc(-c2nnc(SCC(=O)Nc3ccccc3OC)o2)cc1 | inconclusive: 7.96% | – |
| O=C(O)c1cccnc1SCCc1ccccc1 | inconclusive: -10.8% | – |
| CCOc1ccc(OCC)c(NC(=O)c2[nH]c(C)c(C(C)=O)c2C)c1 | inconclusive: 26.7% | – |
| CN(C)/C=N/c1c(C#N)cnn1-c1ccc(C(F)(F)F)cn1 | inconclusive: 9.27% | – |
| CCOC(=O)C1CCN(C(=O)c2cc(S(=O)(=O)N3CCOCC3)c(Cl)cc2Cl)CC1 | – | inactive |
| Cc1ccc(-c2csc3nnc(SCc4csc(C)n4)n23)cc1 | – | inconclusive: 12.6 µM [rising, partial curve] |
| CC1CCN(CC[C@@H]2CCCN2S(=O)(=O)c2cccc(O)c2)CC1 | – | inactive |
| Cn1c(SCC(=O)c2ccccc2)nnc1-c1cnccn1 | – | inactive |
| Cc1sc2nc(C(C)C)nc(SCC(=O)N3CCN(C(=O)c4ccco4)CC3)c2c1C | – | inconclusive: 10 µM [rising, partial curve] |
| COCCn1c(=O)c(-c2cn(C)c3ccccc23)nc2cnc(N3CCNCC3)nc21 | – | inconclusive: 10 µM [rising, partial curve] |
| CCCOc1c(OC)cccc1C1CC(=O)Nc2cc(OC)c(OC)c(OC)c21 (configuration not stated) | inconclusive: 5.32% | – |
| CCn1c(SCC#N)nc2c(c1=O)C1(CCCC1)Cc1ccccc1-2 | – | inconclusive: 10 µM [rising, partial curve] |
| COc1cccc(OCc2nnc(SCC(=O)OC3CCCCC3)n2C)c1 | – | inactive |
| O=C(O)C(Cc1ccccc1)Cc1ccccc1 | inconclusive: -6.88% [at 7.6 µM] | – |
| O=C(O)CCc1ccc(-c2ccccc2)n1CC(=O)O | – | inactive |
| O=C(c1ccc(Br)o1)N1CCN(c2ccc3nnc(-c4ccccc4)n3n2)CC1 | – | inactive |
| Nc1ccc2c(c1)C(=O)c1ccccc1C2=O | – | active: 7.94 µM |
| COc1ccc(C)cc1NC(=O)CSc1nnc(-c2ccccn2)n1Cc1ccco1 | – | active: 1.58 µM |
| COc1cc(C2N(c3ccccc3)CCN2c2ccccc2)cc(OC)c1OC | inconclusive: 2.87% [cytotoxic] | – |
| COc1ccc(OC)c(-c2cc(C(=O)Nc3c(C)n(C)n(-c4ccccc4)c3=O)no2)c1 | – | inconclusive: 10 µM [rising, partial curve] |
| COc1ccc(OC)c(N/C(=N\c2nc(C)cc(C)n2)NC(=O)c2ccco2)c1 | – | inactive |

| Structure (SMILES) | activity change, negative = inhibition | Potency |
| --- | --- | --- |
| Cn1c(=O)cc(SCC(=O)N2CCN(c3ccccn3)CC2)c2ccccc21 | – | inconclusive: 15.8 µM [rising, partial curve] |
| c1csc(Cc2nn3c(-c4n[nH]c5c4CCC5)nnc3s2)c1 | – | inconclusive: 12.6 µM [rising, single point] |
| COc1ccccc1NC(=O)CSc1nc2ccccc2n1C(C)=O | – | inactive |
| Nc1c(C(=O)NCCN2CCOCC2)c2nc3ccccc3nc2n1CCc1ccccc1F | – | inconclusive: 10 µM [rising, partial curve] |
| CCOC(=O)c1c(C)[nH]c(C(=O)COC(=O)c2ccc(F)c(S(=O)(=O)N3CCOCC3)c2)c1C | inconclusive: 25.9% | – |
| O=C(OCCCCN1C(=O)c2ccccc2C1=O)c1n[nH]c2ccccc12 | – | inactive |
| COc1cc2c(cc1OC)-c1cc(OCCN3CCOCC3)nc(=O)n1CC2 | – | active: 7.94 µM |
| CN(C(=O)c1ccccc1Cl)c1ccccc1 | – | inactive |
| CC(=O)N1c2ccccc2C(=O)OC1c1cccnc1 (configuration not stated) | – | active: 0.631 µM |
| O=[N+]([O-])c1ccc(CSCc2ccc(Cl)cc2)cc1 | inactive: 8.92% [at 7.6 µM] | – |
| c1ccc(CN2CCN(c3nc4ccccc4n4cnnc34)CC2)cc1 | – | active: 12.6 µM |
| CCC(C)N1CC(O)=C(c2nc3ccccc3[nH]2)C1=N (configuration not stated) | – | inconclusive: 3.98 µM [rising, single point] |
| Cc1cnc(CNc2ccnc(-c3cccnc3)n2)cn1 | inconclusive: 23.5% | – |
| COC(=O)CCc1c(C)nn(-c2ccccc2)c1C | inconclusive: -1.74% | – |
| CCOc1ccccc1C(=O)N(C)Cc1cc2cc(OC)ccc2[nH]c1=O | – | inconclusive: 12.6 µM [rising, single point] |
| CCOC(=O)c1cccc(NC(=O)c2cnc3ccccc3n2)c1 | – | inactive |
| COc1ccc(C)cc1NC(=O)c1nnn(Cc2cccc(F)c2)c1N | – | inactive |
| c1ccc(OCc2nn3c(Cn4cnc5ccccc54)nnc3s2)cc1 | – | inconclusive: 0.158 µM [rising, full curve, poor fit] |
| CCOC(=O)N1CCC(NC(=O)CSCc2nc(-c3ccc(OC)c(OC)c3)oc2C)CC1 | – | inactive |
| COc1ccccc1-c1nc(C(N)=O)c2[nH]c(=O)n(-c3cccc(C)c3)c2n1 | – | inconclusive: 12.6 µM [rising, single point] |
| COC(=O)c1cc(NS(=O)(=O)c2ccc3c(c2)CCC(=O)N3)cc(C(=O)OC)c1 | – | inactive |

| Structure (SMILES) | activity change, negative = inhibition | Potency |
| --- | --- | --- |
| NC(=O)c1cccc2c3c([nH]c12)CCCC3 | – | inactive |
| N#CCSc1nc2c(sc(=S)n2Cc2ccco2)c(=O)n1-c1ccc(F)cc1 | inconclusive: 13.9% | – |
| CCN(CC)C(=O)C1CCCN(c2ncnc3c2cnn3-c2cccc(C)c2)C1 (configuration not stated) | – | inconclusive: 12.6 µM [rising, single point] |
| O=C(O)C(CC(=O)N1CCOCC1)NCc1ccccc1 (configuration not stated) | – | inconclusive: 0.00398 µM [rising, full curve, poor fit] |
| COC(=O)c1oc2ccc(Br)cc2c1NC(C)=O | inconclusive: 29.3% | – |
| CN1CCc2c(sc3c2c(=O)n(-c2cccc(Cl)c2)c2nncn32)C1 | inconclusive: -11.6% | – |
| COc1cccc(N2C(=O)C(CC(=O)Nc3ccccc3)N(C3CCCCC3)C2=O)c1 (configuration not stated) | – | inconclusive: 31.6 µM [falling, single point] |
| COC(=O)[C@@H]1C[C@H]1[C@@H](NC(=O)c1cc(C)nn1C)c1ccccc1 | – | inactive |
| COc1cccc(Nc2ncc3nc(CCc4ccccc4)c(=O)n(C4CC4)c3n2)c1 | inconclusive: -3.44% [fluorescent] | – |
| CC(=O)N1CCCc2cc(S(=O)(=O)N(C)CCC#N)ccc21 | – | inactive |
| O=C(Nc1nc(-c2ccc3c(c2)OCO3)cs1)C1COc2ccccc2O1 (configuration not stated) | inconclusive: -23.6% | – |
| Cc1nnc(SCCn2c(N3CCC(C)CC3)nc3c2c(=O)n(C)c(=O)n3C)s1 | inconclusive: 25.6% | – |
| Cc1ccc(Cn2c(=O)n(Cc3ccco3)c(=O)c3ccccc32)cc1 | inconclusive: 12.5% | – |
| COc1ccc(NC(=O)C2CCN(S(=O)(=O)c3ccc(OC)c(OC)c3)CC2)c(OC)c1 | inconclusive: 12.1% [at 7.6 µM] | – |
| CCOC(=O)c1ccc(N(CC(=O)NC2CCCC2)C(=O)CNC(=O)c2ccco2)cc1 | – | inactive |
| COc1ccc(-c2csc(N3CCN(Cc4ccc5c(c4)OCO5)CC3)n2)cc1 | – | inactive |
| CCOc1ccc(N2CCCn3c2nc2c3c(=O)n(CCc3ccccc3)c(=O)n2C)cc1 | – | inactive |
| CCOc1cc(N2CCOCC2)c(OCC)cc1NC1=NCCCCC1 | – | inactive |
| CCOC(=O)c1c(C)[nH]c(C(=O)COC(=O)C2CC(=O)N(Cc3ccccc3)C2)c1C (configuration not stated) | – | inconclusive: 12.6 µM [rising, single point] |
| COc1ccc(-n2c(=O)c(-c3ccc(Cl)cc3)nc3cnc(N4CCOCC4)nc32)cc1 | – | inconclusive: 1.26 µM [rising, partial curve] |
| O=C(CCSc1nc(-c2ccco2)cc(C(F)(F)F)n1)N1CCCc2ccccc21 | – | inactive |

| Structure (SMILES) | activity change, negative = inhibition | Potency |
| --- | --- | --- |
| O=C(c1ccccc1-c1ccccc1)N1CCN(c2ccccn2)CC1 | inconclusive: -22.1% | – |
| CCN1C(=O)CSc2ccc(C(=O)NCCCN3CCOCC3)cc21 | inconclusive: 7.11% | – |
| O=C1CCCC2=C1C1(O)C(=O)c3ccccc3C1(O)O2 (configuration not stated) | inconclusive: -9.26% [at 7.6 µM] | – |
| Cc1nnc(SCC(=O)N2c3ccccc3Sc3ccccc32)n1N | – | inactive |
| CCOC(=O)N1CC=C2C(C#N)=C(N)C(C#N)(C#N)[C@H](c3ccc(OCC)c(OCC)c3)[C@H]2C1 | – | inconclusive: 12.6 µM [rising, partial curve] |
| COc1ccccc1N1CCN(C(=O)CCc2ccc(S(=O)(=O)NCC(C)C)cc2)CC1 | – | inactive |
| O=C(NCc1ccc(F)cc1)N[C@@H](Cc1ccccc1)C(=O)O | inconclusive: 21.8% | – |
| CCOC(=O)c1cnc2c(C(=O)OC)cccc2c1NCCN1CCOCC1 | – | inconclusive: 12.6 µM [rising, single point] |
| Cc1oc2cc3oc(=O)c4c(c3cc2c1C)CCC4 | inconclusive: 23.3% | – |
| CCOC(=O)c1c(C)oc2c1c(C=NCc1ccccn1)c(O)c1ccccc12 | inconclusive: -18% | – |
| Cc1noc(C)c1CSc1ncnc2ccccc12 | – | inconclusive: 10 µM [rising, partial curve] |
| CC(C(=O)N(C1CC1)C1(C(=O)Nc2ccccc2)CCCC1)N1C(=O)c2ccccc2C1=O (configuration not stated) | inconclusive: -26.4% | – |
| CCCCCn1c(SCC#N)nc2cc(C(=O)NCC3CCCO3)ccc2c1=O (configuration not stated) | inconclusive: 26.3% | – |
| CC(=O)Nc1nc2ccccc2n1CCN1CCOCC1 | – | inactive |
| CCC(C)(C(=O)NC1CCCC1)N(Cc1ccco1)C(=O)c1ccc2c(c1)OCO2 (configuration not stated) | inconclusive: -29% | – |
| COCCCNC(=O)c1ccc(Cn2c(=O)[nH]c3ccccc3c2=O)cc1 | – | inconclusive: 10 µM [rising, single point] |
| O=c1cc(-c2ccccc2)nc2n1Cc1ccccc1-2 | – | inconclusive: 12.6 µM [rising, single point] |
| NC(N)=NCCCC(=O)O | inactive: 0% [at 7.6 µM] | – |
| CCn1c(SCC(=O)N2CCN(c3ccccc3)CC2)nc2c(c1=O)SC(C)C2 (configuration not stated) | – | inactive |
